Results as given in PMC8119676, “Human ribonuclease 1 serves as a secretory ligand of ephrin A4 receptor and induces breast tumor initiation” (Nature Communications, 2021).
These are yes or no findings as the source states them, for the method shown. For part of these data: In cells and extracts the contact can be indirect. Some binding calls cover weakened binding; strength is not graded here. For part of these data: Tags and fused reporters may be left off the sequences shown. Each block holds one molecule with its values, some of them ahead of it.

Amino acid sequences for entries named in this document (tags omitted). A change or cut given only in a name is not applied to a line headed by its entry. Residues count along the entry.
UniProt P54764: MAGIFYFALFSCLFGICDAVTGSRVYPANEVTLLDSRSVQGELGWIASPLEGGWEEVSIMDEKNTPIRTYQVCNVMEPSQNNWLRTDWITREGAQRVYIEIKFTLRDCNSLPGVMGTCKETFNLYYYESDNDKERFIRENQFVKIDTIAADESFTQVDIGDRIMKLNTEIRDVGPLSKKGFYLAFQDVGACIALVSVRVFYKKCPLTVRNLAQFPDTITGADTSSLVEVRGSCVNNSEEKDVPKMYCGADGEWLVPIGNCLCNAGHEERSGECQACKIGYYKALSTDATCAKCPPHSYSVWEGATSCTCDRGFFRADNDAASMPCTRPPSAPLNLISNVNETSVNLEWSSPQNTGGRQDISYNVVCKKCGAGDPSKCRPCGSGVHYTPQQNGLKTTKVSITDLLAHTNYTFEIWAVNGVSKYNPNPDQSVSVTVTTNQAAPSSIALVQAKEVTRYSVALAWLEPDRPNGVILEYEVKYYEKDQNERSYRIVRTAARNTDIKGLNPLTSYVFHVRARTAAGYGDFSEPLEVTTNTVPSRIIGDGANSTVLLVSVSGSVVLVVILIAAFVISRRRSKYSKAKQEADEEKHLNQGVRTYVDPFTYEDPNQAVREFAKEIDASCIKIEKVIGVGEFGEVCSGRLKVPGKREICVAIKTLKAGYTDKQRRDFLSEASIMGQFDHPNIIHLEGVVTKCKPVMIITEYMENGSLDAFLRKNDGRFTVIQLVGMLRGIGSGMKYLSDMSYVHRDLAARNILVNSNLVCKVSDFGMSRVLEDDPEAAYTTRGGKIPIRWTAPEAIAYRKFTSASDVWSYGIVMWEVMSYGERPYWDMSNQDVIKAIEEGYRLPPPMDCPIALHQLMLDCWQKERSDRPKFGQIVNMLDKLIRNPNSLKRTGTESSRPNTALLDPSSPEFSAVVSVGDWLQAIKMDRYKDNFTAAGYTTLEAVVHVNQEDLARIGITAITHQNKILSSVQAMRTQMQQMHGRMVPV
EphA4 expressed in KPL4 cells with hRNase 1 knockout (KPL4-A4-KO-R1): residues 20-986 of P54764
purified N-terminal EphA4 chimera (N-EphA4-Fc): residues 20-547 of P54764
UniProt P03950, residues 25-147: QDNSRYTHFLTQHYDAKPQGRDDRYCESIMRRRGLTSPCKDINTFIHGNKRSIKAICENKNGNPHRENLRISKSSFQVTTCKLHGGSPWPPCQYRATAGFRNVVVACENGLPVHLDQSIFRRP

Key:
[1] = target: T1, GST-tagged hRNase 1 (human) (UniProt P07998); assay: pull-down; GST-tagged hRNase 1 on glutathione magnetic beads incubated with lysate (1 mg) of transfected 293T cells at 4 °C for 6 h; WB; only the target purified
T1 sequence: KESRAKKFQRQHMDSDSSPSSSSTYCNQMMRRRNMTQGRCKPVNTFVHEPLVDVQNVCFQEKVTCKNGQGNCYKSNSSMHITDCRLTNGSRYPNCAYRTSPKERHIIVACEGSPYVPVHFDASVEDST

[2] = target: endogenous EphA4 (human (endogenous in MCF7, BT-549, KPL4)) (UniProt P54764); assay: proximity ligation; Duolink in situ PLA; BT-549 and KPL4 cells treated for 30 min with CM from 293T stable transfectants; anti-EphA4 and anti-Flag antibodies
[3] = target: purified N-terminal EphA4 chimera (N-EphA4-Fc) (UniProt P54764); assay: pull-down; in vitro binding assay; recombinant hRNase 1 (HEK293) heat-denatured and incubated overnight at 37 °C without or with PNGase F, then incubated with N-EphA4-Fc or human IgG; both purified
[4] = target: EphA4 expressed in KPL4 cells with hRNase 1 knockout (KPL4-A4-KO-R1) (human) (UniProt P54764); assay: proximity ligation; Duolink in situ PLA; KPL4-A4-KO-R1 cells treated with GST vector or GST-hRNase 1 proteins (WT, ΔN, ΔC) for 30 min; percentage of positive cells from a pool of 50 cells; only the binder purified
[5] = target: purified N-terminal EphA4 chimera (N-EphA4-Fc) (UniProt P54764); assay: pull-down; in vitro binding assay; N-EphA4-Fc incubated with or without hRNase 1 purified from E. coli; protein G beads used for pull-down; both purified

binding [1]: no binding
Molecule: Myc-tagged EphA4-ICD (amino acids 570–986 of EphA4) (from UniProt P54764 570-986) (domain or fragment)

binding [1]: binds
Molecule: Myc-tagged EphA4-ECD (amino acids 1–547 of EphA4) (from UniProt P54764 20-547) (domain or fragment)

binding [2]: no binding
Molecule: Flag-tagged hRNase 5 in conditioned medium of 293T-pCDH-hRNase 5 stable transfectants (from UniProt P03950 25-147) (enzyme)

binding [2]: binds
B1: Flag-tagged hRNase 1 in conditioned medium of 293T-pCDH-R1 stable transfectants (enzyme, UniProt P07998 29-156)
chain: KESRAKKFQRQHMDSDSSPSSSSTYCNQMMRRRNMTQGRCKPVNTFVHEPLVDVQNVCFQEKVTCKNGQGNCYKSNSSMHITDCRLTNGSRYPNCAYRTSPKERHIIVACEGSPYVPVHFDASVEDST

binding [4]: binds
B5: GST-hRNase 1 deletion mutant of N-terminus (ΔN; amino acids 1–21 deletion) (domain or fragment, UniProt P07998 50-156)
chain: SSTYCNQMMRRRNMTQGRCKPVNTFVHEPLVDVQNVCFQEKVTCKNGQGNCYKSNSSMHITDCRLTNGSRYPNCAYRTSPKERHIIVACEGSPYVPVHFDASVEDST

The remaining lines, values behind:

Molecule: Myc-tagged EphA4 (from UniProt P54764 20-986) (receptor)
binding [1]: binds

B2: recombinant hRNase 1 pretreated with PNGase F (non-glycosylated hRNase 1) (enzyme, UniProt P07998 29-156)
chain: KESRAKKFQRQHMDSDSSPSSSSTYCNQMMRRRNMTQGRCKPVNTFVHEPLVDVQNVCFQEKVTCKNGQGNCYKSNSSMHITDCRLTNGSRYPNCAYRTSPKERHIIVACEGSPYVPVHFDASVEDST
modifications: N-linked glycans removed with PNGase F
binding [3]: binds

B3: GST-tagged hRNase 1 (enzyme, UniProt P07998 29-156)
chain: KESRAKKFQRQHMDSDSSPSSSSTYCNQMMRRRNMTQGRCKPVNTFVHEPLVDVQNVCFQEKVTCKNGQGNCYKSNSSMHITDCRLTNGSRYPNCAYRTSPKERHIIVACEGSPYVPVHFDASVEDST
binding [4]: binds

B4: recombinant hRNase 1 protein purified from Escherichia coli (hRNase 1-Myc-His) (enzyme, UniProt P07998 29-156)
chain: KESRAKKFQRQHMDSDSSPSSSSTYCNQMMRRRNMTQGRCKPVNTFVHEPLVDVQNVCFQEKVTCKNGQGNCYKSNSSMHITDCRLTNGSRYPNCAYRTSPKERHIIVACEGSPYVPVHFDASVEDST
binding [5]: binds
